According to PubChem BioAssay AID1347416 (National Center for Advancing Translational Sciences (NCATS), 2020):
Screen size: about 4,100 compounds; about 1,600 (39%) were called active. Inconclusive means that the source gave no clear call. Such entries were picked first, then a sample of the others. Calls follow the shape of the dose curve; as a rule, active = well fitted inhibition curve with a large enough effect; inconclusive = small, poorly fitted or top-dose-only effect; inactive = no such curve, though single readings can be large or run the other way. Where the call is inconclusive, the potency comes from a doubtful curve fit.

Assay: qHTS Validation assay for Inhibitors of Plasmodium falciparum Dd2 growth in vitro; also: nearly all actives have a fitted effect of over 70% in size
Conditions: P. falciparum Dd2 in RBCs, SYBR Green growth, 72 h; series mostly up to 28.7 µM
Summary of the method: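 P. falciparum Dd2-infected red blood cells (2.5% hematocrit, 0.3% parasitemia) grown 72 h at 37 °C under 5% O2 with compounds in a titration, 29 uM to 0.5 nM final. Growth read as SYBR Green-1 fluorescence after ~16 h lysis; artesunate 300 nM as positive control.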
Potency is read from the fitted curve at half-maximal effect; tags tell the direction and shape of the fitted curve.

Row | SMILES | Potency
1 | COc1ccc(CCNC(=O)CCn2c(=O)c3ccccc3n(Cc3cc(C)ccc3C)c2=O)cc1OC | inactive
2 | COC(=O)c1ccc(NC(=O)N2CCC(O)(c3cccnc3)CC2)cc1 | inconclusive: 2.11 µM [inhibitor, single point]
3 | COc1cccc(N2CCN(c3nc(C(=O)NCc4ccncc4)cs3)CC2)c1 | inconclusive: 11.9 µM [inhibitor, partial curve, poor fit]
4 | Cc1cc(=O)n(CC(=O)Nc2cccc(C(F)(F)F)c2)c(N2CCC(C)CC2)n1 | inconclusive: 21.1 µM [inhibitor, single point]
5 | Cc1nn2c(c1-c1ccccc1Oc1ccccc1)N(C(=O)Cc1cccc(F)c1)CCC2 | inactive
6 | Cc1cn2c(=O)cc(COC(=O)c3cccc(NC(=O)COc4ccccc4Cl)c3)nc2s1 | inconclusive: 15 µM [inhibitor, single point]
7 | COc1ccc(C2=CC(c3ccc(F)cc3)n3ncc(C(=O)Nc4ccc(C)cc4)c3N2)cc1 (stereo unspecified) | active: 2.37 µM
8 | O=c1[nH]c(N2CCOCC2)nc2c1CCN(Cc1ccc(C(F)(F)F)cc1)CC2 | inconclusive: 16.8 µM [inhibitor, single point]
9 | CCN(C(=O)CCC(=O)N1CCc2nc3cc(-c4ccc(OC)cc4)[nH]n3c(=O)c2C1)c1ccccc1 | inconclusive: 23.7 µM [inhibitor, single point]
10 | Cc1nn(-c2ccc([N+](=O)[O-])cc2)c2c1C(c1cccc(Br)c1)N1C(=N2)C(=O)Nc2ccccc21 (stereo unspecified) | inconclusive: 0.944 µM [inhibitor, full curve, poor fit]
11 | CCOc1ccc(NC(=O)CCc2c(C)nc3cc(-c4ccc(Cl)cc4)nn3c2C)cc1 | inconclusive: 6.68 µM [inhibitor, partial curve]
12 | CCC(=O)Nc1cc(=O)[nH]c2nc(-c3ccc(Cl)cc3)nn12 | inconclusive: 9.44 µM [inhibitor, partial curve, poor fit]
13 | O=C(NC1CCCN(c2cc(-c3ccc(F)cc3)[nH]n2)C1)c1ccc2ncccc2c1 (stereo unspecified) | inconclusive: 21.1 µM [inhibitor, single point]
14 | CCn1cc(C(=O)N[C@@H](CCSC)C(=O)NC(C)(C)CO)c(=O)c2cc3c(cc21)OCO3 | active: 2.99 µM
15 | CCOC(=O)c1c(S(=O)(=O)N2CCC(C(=O)Nc3ccc(F)cc3F)CC2)c(C)n(C)c1C | inactive
16 | CNCC(=O)N1CCC2(CC1)CN(Cc1ccccc1)CC2CO (stereo unspecified) | inactive
17 | CCCc1nc2ccc(NC(=O)c3ccco3)cc2c(=O)n1Cc1ccc(Cl)cc1 | inconclusive: 7.5 µM [inhibitor, partial curve, poor fit]
18 | CC(=O)N1CCc2cc(Br)cc(S(=O)(=O)N3CCCCCC3)c21 | active: 5.31 µM
19 | O=C(CCCc1ccccc1)N1CCC[C@H]1c1nc(-c2ccccc2)no1 | inactive
20 | CCOc1ccc(-c2cc3c(=O)n(CCNC(=O)c4ccccc4)ccn3n2)cc1 | inactive
21 | COc1cncc(Nc2ncc(-c3c(C)noc3C)c3c2OCC3)c1 | inactive
22 | CCOC(=O)C1(Cc2cccc(Cl)c2)CCCNC1 (stereo unspecified) | inconclusive: 8.41 µM [inhibitor, partial curve]

Row | SMILES | Potency
23 | Cc1cccc(CSc2nnc3c(n2)[nH]c2ccccc23)c1 | inconclusive: 16.8 µM [inhibitor, single point]
24 | C[C@H]1[C@@H]2[C@@H](O)C([C@H](C)C(=O)NCc3cc(F)cc(F)c3)CC[C@@]2(C)CC[C@@H]1NC(=O)c1cncnc1 (stereo partly specified) | inconclusive: 4.22 µM [inhibitor, full curve]
25 | CCCCCC(=O)Nc1nc2c(s1)C[C@@H]1[C@](C)(CO)[C@H](O)CC[C@@]1(C)[C@@H]2CC(=O)Nc1ccccc1 | inconclusive: 21.1 µM [inhibitor, single point]
26 | Cc1cccc(OCC(=O)NCC2(N3CCN(C)CC3)CCCCC2)c1 | inconclusive: 3.35 µM [inhibitor, partial curve, poor fit]
27 | Cc1ccccc1CC(=O)NCc1nnc2cc(-c3nc(C4CC4)no3)ccn12 | inconclusive: 21.1 µM [inhibitor, single point]
28 | Cc1cc(NCc2ccccn2)n2nc(C)c(-c3ccccc3)c2n1 | inconclusive: 13.3 µM [inhibitor, partial curve]
29 | CCOC(=O)c1cn(CC)c2cc(N3CCSCC3)c(F)cc2c1=O | inconclusive: 1.68 µM [inhibitor, full curve]
30 | CC(C)(C(=O)N1CCN(Cc2ccccc2)CC(O)C1)c1ccccc1 (stereo unspecified) | inactive
31 | O=C1c2cnc(-c3cc4ccccc4o3)nc2OCCN1Cc1ccccc1 | inconclusive: 34.4 µM [inhibitor, single point]
32 | O=C(c1ccsc1)N1CC(c2noc(C3CCCN3CC3CC3)n2)C1 (stereo unspecified) | inconclusive: 21.1 µM [inhibitor, single point]
33 | Cc1nn2c(c1-c1cccnc1N1CCOCC1)N(CCc1ccccc1)CCC2 | inconclusive: 24.3 µM [inhibitor, single point]
34 | CCN1c2cc(C(=O)Nc3ccccc3C(=O)OC)ccc2C(=O)N2CCCCCC21 (stereo unspecified) | inconclusive: 21.1 µM [inhibitor, single point]
35 | Cc1ccc(-c2nn(-c3ccccc3)cc2CSC(=N)N)cc1 | inactive
36 | COc1ccc2c(c1)c(CN1CCCC(c3nc(C(C)C)no3)CCNC(=O)CC1)cn2C(C)C (stereo unspecified) | inconclusive: 16.8 µM [inhibitor, single point]
37 | CC1CCN(c2ncncc2-c2nc(-c3ccccc3)no2)CC1 | inconclusive: 16.8 µM [inhibitor, single point]
38 | CCc1noc(-c2ccn3c(CNC(=O)Cc4cccc(F)c4)nnc3c2)n1 | inactive
39 | c1ccc(-c2cccc(-c3ccccn3)n2)nc1 | inconclusive: 5.96 µM [inhibitor, single point]
40 | COc1ccc(-c2noc(-c3cccn3CC(=O)NCCC3=CCCCC3)n2)cc1F | inconclusive: 11.9 µM [inhibitor, single point]
41 | O=C(Nc1ccc2c(N3CCCCC3)ncnc2c1)c1cc(F)cc(F)c1 | active: 1.88 µM
42 | Cc1cc(Nc2cccc(Cl)c2)nc2ccc(NC(=O)COc3ccc(Cl)cc3)cc12 | inconclusive: 5.31 µM [inhibitor, full curve, poor fit]
43 | CC(=O)N1CCc2nn(CC(=O)Nc3ccc(F)c(F)c3)c(=O)cc2C1 | inconclusive: 21.1 µM [inhibitor, single point]
44 | CCOC(=O)c1c(Nc2ccc(C)c(C)c2)nnc(-c2ccccc2)c1-c1ccccc1 | inconclusive: 16.8 µM [inhibitor, single point]

Row | SMILES | Potency
45 | c1ccc(C(c2ccccc2)N2CCN(c3nc4ccccc4n4cnnc34)CC2)cc1 | inconclusive: 4.73 µM [inhibitor, single point]
46 | CN1CCN(CC(=O)Nc2nc(-c3c[nH]c4ccccc34)cs2)CC1 | inconclusive: 23.7 µM [inhibitor, single point]
47 | C[C@@H](c1ccccc1)N1C(=O)[C@@H]2CN(C(=O)c3cccnc3)CCN2C1=O | inactive
48 | CC(=O)NC(c1ccccc1)c1cc(Cl)c2cccnc2c1O (stereo unspecified) | inconclusive: 21.1 µM [inhibitor, single point]
49 | CCCCOc1cccc(C(=O)N(Cc2cccs2)c2ccc(OC)cc2)c1 | inconclusive: 0.75 µM [inhibitor, full curve, poor fit]
50 | COc1ccc(CN2Cc3[nH]cnc3C[C@H]2c2nc(-c3ccc4ccccc4c3)no2)cc1 | inconclusive: 21.1 µM [inhibitor, single point]
51 | CCc1ccc(S(=O)(=O)c2nnn3c2nc(Nc2ccc(F)cc2)c2cc(Cl)ccc23)cc1 | active: 2.11 µM
52 | CC(NC(=O)c1ccc(NC(=O)c2ccco2)cc1)c1ccccc1 (stereo unspecified) | inactive
53 | COc1ccc(C(=O)N2CCC3(CC2)CC(C(C)C)=NO3)cc1 | inactive
54 | Cc1cn2nc(-c3nc(C4CCCN(C(=O)c5cccs5)C4)no3)cc2c(=O)[nH]1 (stereo unspecified) | inactive
55 | COc1cccc(CCC(=O)NC2CCN(C(=O)c3cc4c(=O)[nH]c(C)cn4n3)CC2)c1 | inactive
56 | Cc1cc(C(C)c2ccccc2)c(O)c(CN2CCOCC2)c1C (stereo unspecified) | active: 2.99 µM
57 | Cc1nn2c(NCc3ccccn3)cc(C(C)C)nc2c1-c1ccccc1 | inconclusive: 16.8 µM [inhibitor, single point]
58 | COc1cc(C(C)=O)ccc1OCC(=O)c1cc(C)n(C2CC2)c1C | inconclusive: 23.7 µM [inhibitor, single point]
59 | CN(C)c1nc2c(c(=O)[nH]1)CCN(Cc1ccc(F)cc1Cl)CC2 | active: 10.6 µM
60 | Cc1ccc(-c2noc(-c3ccccc3NC(=O)C3CC(=O)N(c4ccc(C)cc4)C3)n2)cc1 (stereo unspecified) | inconclusive: 4.22 µM [inhibitor, partial curve]
61 | Cc1ccc(O)c(/C=N/NC(=O)c2[nH]ncc2Br)c1 | inconclusive: 15 µM [inhibitor, single point]
62 | CCc1cccc2c(C(CC(=O)N3CCCC3)c3ccc(Cl)c(Cl)c3)c[nH]c12 (stereo unspecified) | inconclusive: 23.7 µM [inhibitor, single point]
63 | COCc1cc(=O)n(CC(=O)NCc2cccc(OC)c2)c(N2CCOCC2)n1 | inactive
64 | Cc1noc(C)c1-c1nccc2c(=O)cc(N(C)c3ccccc3)oc12 | active: 17.2 µM
65 | CC(=O)N1CCCc2cc(S(=O)(=O)N3CCCC(C(=O)Nc4ccc(C)c(C)c4)C3)ccc21 (stereo unspecified) | inactive
66 | CN1CCC2(CC1)CN(C(=O)CCc1ccccc1)Cc1ccccc1O2 | inconclusive: 6.68 µM [inhibitor, partial curve]
